Patent US4113858A, “Novel compounds, compositions and methods of their use” (St. Luke's Hospital, priority 1976, dated 1978)

How the values were obtained:
[1] = test system: guinea pigs, rabbits and rats; conditions: 10-15 microgram doses
[2] = test system: guinea pigs, rabbits and rats; conditions: s.c. at dosage levels of 10 μg or more; cited from earlier work

FSWGAEGQK [Formula (X), H -- Phe -- Ser -- Trp -- Gly -- Ala -- Glu -- Gly -- Gln -- Lys -- OH, reference compound]
death post onset of signs [1]: 2 to 3 days
time to induction of the disease [1]: less than 20 days

B1: Basic Protein: native protein isolated from bovine myelin known to induce disease (EAE) (protein, UniProt P02687 1-169, looked up)
Myelin basic protein: AAQKRPSQRSKYLASASTMDHARHGFLPRHRDTGILDSLGRFFGSDRGAPKRGSGKDGHHAARTTHYGSLPQKAQGHRPQDENPVVHFFKNIVTPRTPPPSQGKGRGLSLSRFSWGAEGQKPGFGYGGRASDYKSAHKGLKGHDAQGTLSKIFKLGGRDSRSGSPMARR
induction of disease (EAE), share of mammals [2]: at least 50%

Ends that are not written are not given here.
